Here are results for 32 sequences from article PMC12820563.

This is one part of the list. The list includes weakly bound sequences.

This test deals with T1, MBP-FoxP3dN (UniProt Q99JB6).
T1 sequence: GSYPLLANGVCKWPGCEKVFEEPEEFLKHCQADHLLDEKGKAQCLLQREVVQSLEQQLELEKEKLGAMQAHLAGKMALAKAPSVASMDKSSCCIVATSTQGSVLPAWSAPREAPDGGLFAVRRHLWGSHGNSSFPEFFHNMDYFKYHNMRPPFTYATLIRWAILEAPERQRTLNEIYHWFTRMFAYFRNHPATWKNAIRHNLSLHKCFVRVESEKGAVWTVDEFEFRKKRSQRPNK
Kind of test: PD-seq (MBP pull-down with sequencing). Conditions: 20 mM Tris-HCl pH 7.5, 100 mM NaCl, 1.5 mM MgCl2, 0.4 uM protein, 0.1 uM dsDNA library, 30 min, room temperature, amylose pull-down; high values mean tight binding; double strand, one strand shown.
As to “GATGATTGTTCTCCCAGCTGATGAATTAATCTGGTCGAGTAAACAAATTTTCCTAATCTTTCTGTTCAAGCGCCATCTAC”, the binding signal (RPM ratio (pull-down/input)) was determined as 0.225.
Next, “GATGATTGTTCTCCCAGCTGATGAATTTGAGGTGTCGAGTAAACAAATTTTCCTAATCTTTCTGTTCAAGCGCCATCTAC”: 1.4; “GATGATTGTTCTCCCAGCTGATGAATTTTTTCCGTCGAGTAAACAAATTTTCCTAATCTTTCTGTTCAAGCGCCATCTAC”: 0.197; “GATGATTGTTCTCCCAGCTGATGAATTCCAACATTCGAGTAAACAAATTTTCCTAATCTTTCTGTTCAAGCGCCATCTAC”: 0.667.
“GATGATTGTTCTCCCAGCTGATGAATTGGGCTCGTCGAGTAAACAAATTTTCCTAATCTTTCTGTTCAAGCGCCATCTAC”: the binding signal (RPM ratio (pull-down/input)) came to 0.553.
Next, “GATGATTGTTCTCCCAGCTGATGAATTATACAAATCGAGTAAACAAATTTTCCTAATCTTTCTGTTCAAGCGCCATCTAC”: 0.711; “GATGATTGTTCTCCCAGCTGATGAATTCCAAGTATCGAGTAAACAAATTTTCCTAATCTTTCTGTTCAAGCGCCATCTAC”: 0.407.
Next, “GATGATTGTTCTCCCAGCTGATGAATTATATAGTTCGAGTAAACAAATTTTCCTAATCTTTCTGTTCAAGCGCCATCTAC”: 0.79; “GATGATTGTTCTCCCAGCTGATGAATTGGGTTCCTCGAGTAAACAAATTTTCCTAATCTTTCTGTTCAAGCGCCATCTAC”: 0.652.
Consider “GATGATTGTTCTCCCAGCTGATGAATTACTACAATCGAGTAAACAAATTTTCCTAATCTTTCTGTTCAAGCGCCATCTAC”, for which the binding signal (RPM ratio (pull-down/input)) was found to be 0.669.
“GATGATTGTTCTCCCAGCTGATGAATTGGTAACGTCGAGTAAACAAATTTTCCTAATCTTTCTGTTCAAGCGCCATCTAC”: the binding signal (RPM ratio (pull-down/input)) was 0.495.
Next, “GATGATTGTTCTCCCAGCTGATGAATTCCACTCTTCGAGTAAACAAATTTTCCTAATCTTTCTGTTCAAGCGCCATCTAC”: 0.373; “GATGATTGTTCTCCCAGCTGATGAATTGGTGAAGTCGAGTAAACAAATTTTCCTAATCTTTCTGTTCAAGCGCCATCTAC”: 0.273; “GATGATTGTTCTCCCAGCTGATGAATTCCTGCAGTCGAGTAAACAAATTTTCCTAATCTTTCTGTTCAAGCGCCATCTAC”: 0.444.
To “GATGATTGTTCTCCCAGCTGATGAATTGATTCAGTCGAGTAAACAAATTTTCCTAATCTTTCTGTTCAAGCGCCATCTAC” belongs 0.28; to “GATGATTGTTCTCCCAGCTGATGAATTATGTTGTTCGAGTAAACAAATTTTCCTAATCTTTCTGTTCAAGCGCCATCTAC”, 7.62.
Next, “GATGATTGTTCTCCCAGCTGATGAATTCGGGGTATCGAGTAAACAAATTTTCCTAATCTTTCTGTTCAAGCGCCATCTAC”: 0.625.
As to “GATGATTGTTCTCCCAGCTGATGAATTTAAGGGATCGAGTAAACAAATTTTCCTAATCTTTCTGTTCAAGCGCCATCTAC”, the binding signal (RPM ratio (pull-down/input)) worked out at 0.261.
Next, “GATGATTGTTCTCCCAGCTGATGAATTTTCAATTTCGAGTAAACAAATTTTCCTAATCTTTCTGTTCAAGCGCCATCTAC”: 0.283; “GATGATTGTTCTCCCAGCTGATGAATTGCGTAGGTCGAGTAAACAAATTTTCCTAATCTTTCTGTTCAAGCGCCATCTAC”: 0.803.
To “GATGATTGTTCTCCCAGCTGATGAATTCGTGGTGTCGAGTAAACAAATTTTCCTAATCTTTCTGTTCAAGCGCCATCTAC” belongs 2.02.
To “GATGATTGTTCTCCCAGCTGATGAATTGAAACAGTCGAGTAAACAAATTTTCCTAATCTTTCTGTTCAAGCGCCATCTAC” belongs 0.416; to “GATGATTGTTCTCCCAGCTGATGAATTCTAGCGCTCGAGTAAACAAATTTTCCTAATCTTTCTGTTCAAGCGCCATCTAC”, 0.451.
“GATGATTGTTCTCCCAGCTGATGAATTGTGTCTCTCGAGTAAACAAATTTTCCTAATCTTTCTGTTCAAGCGCCATCTAC”: the binding signal (RPM ratio (pull-down/input)) was found to be 2.14.
To “GATGATTGTTCTCCCAGCTGATGAATTCGATAGTTCGAGTAAACAAATTTTCCTAATCTTTCTGTTCAAGCGCCATCTAC” belongs 2.01; to “GATGATTGTTCTCCCAGCTGATGAATTCGAAATCTCGAGTAAACAAATTTTCCTAATCTTTCTGTTCAAGCGCCATCTAC”, 0.286.
Next, “GATGATTGTTCTCCCAGCTGATGAATTAACGTCCTCGAGTAAACAAATTTTCCTAATCTTTCTGTTCAAGCGCCATCTAC”: 0.375.
Next, “GATGATTGTTCTCCCAGCTGATGAATTCGTCCCATCGAGTAAACAAATTTTCCTAATCTTTCTGTTCAAGCGCCATCTAC”: 0.567; “GATGATTGTTCTCCCAGCTGATGAATTTCCAGCCTCGAGTAAACAAATTTTCCTAATCTTTCTGTTCAAGCGCCATCTAC”: 0.346.
Take “GATGATTGTTCTCCCAGCTGATGAATTCCCACTCTCGAGTAAACAAATTTTCCTAATCTTTCTGTTCAAGCGCCATCTAC”: the binding signal (RPM ratio (pull-down/input)) stood at 0.323.
To “GATGATTGTTCTCCCAGCTGATGAATTCCGTCGATCGAGTAAACAAATTTTCCTAATCTTTCTGTTCAAGCGCCATCTAC” belongs 0.322; to “GATGATTGTTCTCCCAGCTGATGAATTGGCCGACTCGAGTAAACAAATTTTCCTAATCTTTCTGTTCAAGCGCCATCTAC”, 0.231.
